Laboratory results as given in article PMC4336329 (PLoS ONE, 2015).
Hit rate of the full screen: of about 310,000 compounds, about 14,000 (4.5%) showed an effect of 50% or more. Effects have a minus sign here. This is one part of the list.

Target: human ether-à-go-go-related gene (hERG) potassium channel (human, UniProt Q12809)
Assay: primary screen, population patch clamp on CHO cells stably expressing hERG
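Also: peak tail current of the secondary pulse compared with the same well before compound.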

Chain of human ether-à-go-go-related gene (hERG) potassium channel (Q12809 whole entry, looked up): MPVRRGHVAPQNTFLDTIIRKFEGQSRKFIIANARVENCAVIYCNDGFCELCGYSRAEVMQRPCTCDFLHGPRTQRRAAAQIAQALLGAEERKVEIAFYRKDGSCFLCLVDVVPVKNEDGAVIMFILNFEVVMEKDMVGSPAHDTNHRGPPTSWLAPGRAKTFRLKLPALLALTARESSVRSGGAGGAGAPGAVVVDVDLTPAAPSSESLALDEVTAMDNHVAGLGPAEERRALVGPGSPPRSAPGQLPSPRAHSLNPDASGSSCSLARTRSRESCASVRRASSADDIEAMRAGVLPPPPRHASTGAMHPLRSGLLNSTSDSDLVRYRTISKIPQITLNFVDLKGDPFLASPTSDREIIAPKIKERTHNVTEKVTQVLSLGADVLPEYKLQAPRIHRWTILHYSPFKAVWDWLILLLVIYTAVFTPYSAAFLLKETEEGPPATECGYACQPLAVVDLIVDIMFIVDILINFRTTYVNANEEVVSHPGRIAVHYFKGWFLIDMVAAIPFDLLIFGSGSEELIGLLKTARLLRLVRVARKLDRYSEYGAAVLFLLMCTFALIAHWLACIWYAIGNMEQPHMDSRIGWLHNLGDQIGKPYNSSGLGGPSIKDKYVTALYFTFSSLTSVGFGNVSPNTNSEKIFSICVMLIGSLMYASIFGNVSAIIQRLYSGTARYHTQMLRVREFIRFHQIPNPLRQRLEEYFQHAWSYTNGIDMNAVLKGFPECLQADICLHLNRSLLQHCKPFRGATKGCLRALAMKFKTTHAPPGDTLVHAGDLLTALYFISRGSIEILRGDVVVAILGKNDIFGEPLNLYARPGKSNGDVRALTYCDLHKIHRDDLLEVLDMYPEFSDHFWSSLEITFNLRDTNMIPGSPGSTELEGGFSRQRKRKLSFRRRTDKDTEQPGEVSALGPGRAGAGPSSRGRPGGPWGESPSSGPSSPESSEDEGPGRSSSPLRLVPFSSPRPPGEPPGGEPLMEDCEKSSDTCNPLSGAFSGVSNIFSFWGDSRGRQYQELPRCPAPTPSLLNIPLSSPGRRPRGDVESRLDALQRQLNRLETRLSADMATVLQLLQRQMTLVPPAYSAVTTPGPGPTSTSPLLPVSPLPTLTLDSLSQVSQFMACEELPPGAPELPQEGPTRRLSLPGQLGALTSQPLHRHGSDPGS

| SMILES | hERG current change (%, negative = inhibition) at 10uM |
| --- | --- |
| CCn1cc(C(=O)O)c(=O)c2cc(F)c(N/N=C/c3ccccc3[N+](=O)[O-])cc21 | -51.2% |
| O=C(O)CN=C1NC2(CCCCC2)Cc2ccccc21 | 2.54% |
| O=C(COc1ccc(Br)cc1CO)Nc1ccccc1F | -2.36% |
| O=C(CSc1nc(C2CCCCC2)nc2ccccc12)NCc1ccco1 | -1.06% |
| Cc1cccc(Cn2ncc(Cl)c(Cl)c2=O)c1 | 3.59% |
| CCc1n[nH]c(=S)n1/N=C/c1c(O)ccc2ccccc12 | 15.2% |
| CC1(C)c2[nH]c3ccccc3c2C[C@H]2C(=O)N(N)CC(=O)N21.Cl | 19% |
| O=C(c1ccc2c(c1)OCO2)C1CCCN(C(=O)Nc2ccc(F)cc2F)C1 (stereo not drawn) | -30% |
| S=C(Nc1cccnc1)Nc1cccc2cnccc12 | 14% |
| COC(=O)Cc1ccc(OC(=O)CCS(=O)(=O)c2ccc(C)cc2)cc1 | 22.2% |
| C[n+]1cccc(O)c1SCc1ccccc1.[Br-] | -8% |
| CCC(C)NC(C(=O)Nc1ccc(Cl)c([N+](=O)[O-])c1)c1ccccc1.O=C(O)C(=O)O (stereo not drawn) | -13.2% |
| O=S(=O)(c1ccccc1Cl)N1CCC(Cc2ccccc2)CC1 | 7.47% |
| COc1ccc(OC)c(Cc2nnc(CCC(=O)N3CCCCC3)o2)c1 | 11.4% |
| COc1cc(CC(=O)NCC2COc3ccccc3O2)cc(OC)c1OC (stereo not drawn) | 8.63% |
| O=C(NCc1ccc2c(c1)OCO2)C1CCN(S(=O)(=O)c2cccs2)CC1 | -4.43% |
| CC(C)C(=O)NC(c1ccc(Cl)cc1Cl)c1ccc2cccnc2c1O (stereo not drawn) | -1.82% |
| NC1=NC(=O)C2(COC(c3ccccc3Cl)OC2)S1 (stereo not drawn) | 5.91% |
| [O-][n+]1onc2c3ccnnc3ccc21 | 12.5% |
| C=CCNC(=O)c1ccc(CN2CCC(Cc3ccccc3)CC2)cc1 | -66.8% |

| SMILES | hERG current change (%, negative = inhibition) at 10uM |
| --- | --- |
| CC1(C)C(=O)OC(C(=O)c2ccccc2)C(C)(C)C1=O (stereo not drawn) | -17% |
| Nc1ccc(SCc2cccnc2)cc1 | 17.4% |
| O=C1c2ccccc2S(=O)(=O)c2cc(N3CCc4ccccc4C3)ccc21 | -10.9% |
| O=Cc1c(NCc2ccc(Cl)cc2)c2ccccc2[nH]c1=O | -9.72% |
| CCOC(=O)c1cnn(CCOC(=O)c2ccc(OC)cc2)c1NC(=O)c1ccc(OC)cc1 | -15% |
| O=c1[nH]c(Cc2ccccc2)nc2scc(-c3ccccc3)c12 | 17.6% |
| CC(=O)Nc1cc(Cl)c(N=Cc2ccc(O)cc2O)cc1Cl | 0.7% |
| O=C(O)C1CCC(=O)N1Cc1ccc(F)cc1 (stereo not drawn) | -3.97% |
| O=C(NC(=S)Nc1ccc2[nH]ncc2c1)c1ccccc1 | 2.54% |
| CCOc1ncccc1C(=O)N=c1sccn1C | 26.8% |
| N#CCCN(C(=O)COC(=O)C1=COCCO1)c1ccc(F)cc1 | 12.9% |
| CC(=O)Nc1ccc(NC(=O)CCS(=O)(=O)c2ccc3c(c2)oc(=O)n3C)cc1 | 17.7% |
| CC1CCN(S(=O)(=O)c2ccc3c(c2)c(=O)c(C(=O)N2CCOCC2)cn3C)CC1 | 13.5% |
| O=[N+]([O-])c1ccc(O)c(C=Nc2ccc3c(c2)OCO3)c1 | 2.71% |
| O=c1cc(CO)oc(CN2CCC(Cc3ccccc3)CC2)c1O | 11.6% |
| Cc1cc(OC(C)C(=O)Nc2ccncc2)ccc1Cl (stereo not drawn) | -27% |
| COC(=O)C/C(O)=C(/N=Nc1cccc(C(F)(F)F)c1)C(=O)OC | 16% |
| c1ccc(-c2cnc(-c3ccccn3)nn2)cc1 | 18.6% |
| CC1CCN(C(=O)c2cc3ccccc3o2)CC1 | -19.1% |
| Cc1ccccc1NC(=S)N1CCCC1 | -6.12% |

| SMILES | hERG current change (%, negative = inhibition) at 10uM |
| --- | --- |
| Cc1ccccc1NC(=O)CSc1nc(=O)n(CCN2CCOCC2)c2c1CCCC2 | -18.8% |
| CCOc1ccc(CNc2ccc(N3CCCC3)cc2)cc1 | -4.01% |
| COc1ccc2c(c1)C=Cc1ccccc1O2 | 5.84% |
| CC(=O)Oc1ccc(C(=O)Nc2cccc3c2CCCC3)cc1 | 10.4% |
| CCC(CC)NC(=O)Nc1ccccc1C | 15.3% |
| CCn1ccc(-c2ccccc2)c(C#N)c1=O | -7.46% |
| CCCS(=O)(=O)N1CCN(CCN2C(=O)c3cccc4cccc(c34)C2=O)CC1 | -8.42% |
| CCCn1c2ccccc2c2cc(C(=O)O)ccc21 | 6.24% |
| COC(=O)c1ccccc1NC(=O)c1cc2n(n1)C(C(F)F)CC(C(F)F)N2 (stereo not drawn) | 14% |
| O=C(C1CCN(S(=O)(=O)c2ccccc2[N+](=O)[O-])CC1)N1CCOCC1 | 4.39% |
| CN(CC(O)CON=C1c2ccccc2-c2ccccc21)S(=O)(=O)c1ccc(Br)cc1 (stereo not drawn) | 11.9% |
| COC(=O)c1cc(OC)c(OC)cc1NC(=O)Nc1cccc(C(C)=O)c1 | 32% |
| COc1ccc(C(=O)/C=C/Nc2cc(C)on2)c(OC)c1 | -6.33% |
| Fc1ccc(-c2ccnc3nc(N4CCOCC4)nn23)cc1 | -3.58% |
| O=C(NCC1CCCO1)C(Cc1ccccc1)N1C(=O)C2C3C=CC(C4CC34)C2C1=O (stereo not drawn) | -12.7% |
| COc1cc(OC)c2ccc(=O)oc2c1C(CC(=O)N1CCCC(C)C1)c1ccc2c(c1)OCO2 (stereo not drawn) | 4.24% |
| Cc1nc2ccccc2c(=O)n1CCCN1CCOCC1 | 18.3% |
| CCOC(=O)c1c(C(=O)OCC)c(C)n(N2C(=O)CSC2=S)c1C | 16.2% |
| Cc1cc(N2CCCC2)ccc1/C=C1\NC(=S)N(C)C1=O | -19.8% |
| O=C(COC(=O)c1ccc2[nH]c3c(c2c1)CCCC3)NC1CCS(=O)(=O)C1 (stereo not drawn) | -8.48% |
